# Some of the results follow. Many values rest on one well or one pass, so single values are uncertain.
# Tested on: WM3619
# Assay: cell count relative to DMSO control; melanoma cells; higher = more viable cells
# Settings: library dose: standard library concentration; 72 h
# 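Further: cells treated in 1,536-well plates, then fixed and DAPI-stained, with nuclei counted from automated high-throughput microscope images.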
row,SMILES,cell count
1,"Cc1cn(-c2cc(NC(=O)c3ccc(C)c(Nc4nccc(-c5cccnc5)n4)c3)cc(C(F)(F)F)c2)cn1 [nilotinib] + O=C(O)C(=O)Nc1sc2c(c1C(=O)O)CCNC2 [TCS401] (first compound 1 µM, partner dose 8.33333 µM)",106%
2,"Cn1c(=O)n(-c2ccc(C(C)(C)C#N)cc2)c2c3cc(-c4cnc5ccccc5c4)ccc3ncc21 + CC(C)CCN1c2nc(Nc3cc(F)c(O)c(F)c3)ncc2N(C)C(=O)C1C [BID1870] (first compound 0.02 µM, partner dose 1 µM)",61.9%
3,"CC(C)C[C@H](NC(=O)[C@H](Cc1ccccc1)NC(=O)c1cnccn1)B(O)O [Bortezomib] + O=c1cc(-c2cccc3c2Sc2ccccc2S3)oc(N2CCOCC2)c1 [KU55933] (first compound 0.005 µM, partner dose 5 µM)",1.06%
4,"CC(C)C[C@H](NC(=O)[C@H](Cc1ccccc1)NC(=O)c1cnccn1)B(O)O [Bortezomib] + CCc1ccc(CCOc2ccc(CC3SC(=O)NC3=O)cc2)nc1 [pioglitazone] (first compound 0.005 µM, partner dose 10 µM)",5.08%
5,"Cc1cc(Nc2cc(N3CCN(C)CC3)nc(/C=C/c3ccccc3)n2)n[nH]1 + COc1ccc2c(c1)CCC1C2CCC2(C)C(NCCCCCCN3C(=O)C=CC3=O)CCC12 [U73122] (first compound 0.2 µM, partner dose 2 µM)",55.5%
6,"CC(C)C[C@H](NC(=O)[C@H](Cc1ccccc1)NC(=O)c1cnccn1)B(O)O [Bortezomib] + COc1ccc(COc2ccc(Cc3cnc(N)nc3N)cc2OC)cc1 [GW2580] (first compound 0.005 µM, partner dose 5 µM)",4.52%
7,"COc1ccc(C2=N[C@@H](c3ccc(Cl)cc3)[C@@H](c3ccc(Cl)cc3)N2C(=O)N2CCNC(=O)C2)c(OC(C)C)c1 [Nutlin-3] + CC(C)CCN1c2nc(Nc3cc(F)c(O)c(F)c3)ncc2N(C)C(=O)C1C [BID1870] (first compound 0.5 µM, partner dose 1 µM)",59.4%
8,"Cc1cn(-c2cc(NC(=O)c3ccc(C)c(Nc4nccc(-c5cccnc5)n4)c3)cc(C(F)(F)F)c2)cn1 [nilotinib] + C[C@]1(O)C[C@@H](c2nc(-c3ccc4ccc(-c5ccccc5)nc4c3)c3c(N)nccn32)C1 [OSI906] (first compound 1 µM, partner dose 2 µM)",67.5%
9,"COc1ccc(C2=N[C@@H](c3ccc(Cl)cc3)[C@@H](c3ccc(Cl)cc3)N2C(=O)N2CCNC(=O)C2)c(OC(C)C)c1 [Nutlin-3] + COc1ccc2c(c1)CCC1C2CCC2(C)C(NCCCCCCN3C(=O)C=CC3=O)CCC12 [U73122] (first compound 0.5 µM, partner dose 2 µM)",50.4%
10,"Cc1cc(Nc2cc(N3CCN(C)CC3)nc(/C=C/c3ccccc3)n2)n[nH]1 + O=S(=O)(c1ccccc1)N(CC(F)(F)F)c1ccc(C(O)(C(F)(F)F)C(F)(F)F)cc1 [T0901317] (first compound 0.2 µM, partner dose 7 µM)",79.4%
11,"Cc1cc(Nc2cc(N3CCN(C)CC3)nc(/C=C/c3ccccc3)n2)n[nH]1 + O=C1NC(=O)/C(=C/c2ccc(-c3ccc(F)cc3O)o2)S1 [AS252424] (first compound 0.2 µM, partner dose 5 µM)",96.3%
12,"Cc1cc(Nc2cc(N3CCN(C)CC3)nc(/C=C/c3ccccc3)n2)n[nH]1 + C[C@@H](Oc1cc(-c2cnn(C3CCNCC3)c2)cnc1N)c1c(Cl)ccc(F)c1Cl [Crizotinib] (first compound 0.2 µM, partner dose 1 µM)",83.2%
13,"Cc1cn(-c2cc(NC(=O)c3ccc(C)c(Nc4nccc(-c5cccnc5)n4)c3)cc(C(F)(F)F)c2)cn1 [nilotinib] + CS(=O)(=O)CCNCc1ccc(-c2ccc3ncnc(Nc4ccc(OCc5cccc(F)c5)c(Cl)c4)c3c2)o1 [lapatinib] (first compound 1 µM, partner dose 4 µM)",59.1%
14,"CC(C)C[C@H](NC(=O)[C@H](Cc1ccccc1)NC(=O)c1cnccn1)B(O)O [Bortezomib] + O=S(=O)(c1ccccc1)N(CC(F)(F)F)c1ccc(C(O)(C(F)(F)F)C(F)(F)F)cc1 [T0901317] (first compound 0.005 µM, partner dose 7 µM)",2.19%
15,"Cc1cc(Nc2cc(N3CCN(C)CC3)nc(/C=C/c3ccccc3)n2)n[nH]1 + COc1ccc(-c2ccc3c(N4CCOCC4)nc(N4C[C@@H](C)O[C@@H](C)C4)nc3n2)cc1CO [KU0063794] (first compound 0.2 µM, partner dose 0.1 µM)",59.6%
16,"Cn1c(=O)n(-c2ccc(C(C)(C)C#N)cc2)c2c3cc(-c4cnc5ccccc5c4)ccc3ncc21 + CS(=O)(=O)CCNCc1ccc(-c2ccc3ncnc(Nc4ccc(OCc5cccc(F)c5)c(Cl)c4)c3c2)o1 [lapatinib] (first compound 0.02 µM, partner dose 4 µM)",72.6%
17,"COc1ccc(C2=N[C@@H](c3ccc(Cl)cc3)[C@@H](c3ccc(Cl)cc3)N2C(=O)N2CCNC(=O)C2)c(OC(C)C)c1 [Nutlin-3] + Oc1cc(-c2nc(-c3ccccc3)[nH]c2-c2ccncc2)ccc1Cl [L779450] (first compound 0.5 µM, partner dose 1 µM)",53.1%
18,"Cc1cc(Nc2cc(N3CCN(C)CC3)nc(/C=C/c3ccccc3)n2)n[nH]1 + C[C@]1(c2nc3c(C(N)=O)cccc3[nH]2)CCCN1 [Veliparib] (first compound 0.2 µM, partner dose 7 µM)",77%
19,"COc1ccc(C2=N[C@@H](c3ccc(Cl)cc3)[C@@H](c3ccc(Cl)cc3)N2C(=O)N2CCNC(=O)C2)c(OC(C)C)c1 [Nutlin-3] + Cc1cc([N+](=O)[O-])ccc1NS(=O)(=O)c1cc(Cl)ccc1Cl [FH535] (first compound 0.5 µM, partner dose 5 µM)",71.7%
20,"CC(C)C[C@H](NC(=O)[C@H](Cc1ccccc1)NC(=O)c1cnccn1)B(O)O [Bortezomib] + C[C@@H](Oc1cc(-c2cnn(C3CCNCC3)c2)cnc1N)c1c(Cl)ccc(F)c1Cl [Crizotinib] (first compound 0.005 µM, partner dose 1 µM)",4.91%
21,"Cc1cn(-c2cc(NC(=O)c3ccc(C)c(Nc4nccc(-c5cccnc5)n4)c3)cc(C(F)(F)F)c2)cn1 [nilotinib] + COc1cc(N2CCC(N3CCN(C)CC3)CC2)ccc1Nc1ncc(Cl)c(Nc2ccccc2S(=O)(=O)C(C)C)n1 [NVP-TAE684] (first compound 1 µM, partner dose 0.4 µM)",90%
22,"Cc1cc(Nc2cc(N3CCN(C)CC3)nc(/C=C/c3ccccc3)n2)n[nH]1 + NC1(c2ccc(-c3nc4ccn5c(=O)[nH]nc5c4cc3-c3ccccc3)cc2)CCC1 [MK2206] (first compound 0.2 µM, partner dose 2 µM)",92.6%
23,"Cc1cc(Nc2cc(N3CCN(C)CC3)nc(/C=C/c3ccccc3)n2)n[nH]1 + O=C(Nc1ccccc1)c1cc([N+](=O)[O-])ccc1Cl [GW9662] (first compound 0.2 µM, partner dose 10 µM)",55.9%
24,"Cc1cc(Nc2cc(N3CCN(C)CC3)nc(/C=C/c3ccccc3)n2)n[nH]1 + Nc1nc(F)nc2c1ncn2[C@@H]1O[C@H](CO)[C@@H](O)[C@@H]1O [fludarabine] (first compound 0.2 µM, partner dose 1 µM)",106%
25,"CC(C)C[C@H](NC(=O)[C@H](Cc1ccccc1)NC(=O)c1cnccn1)B(O)O [Bortezomib] + COc1ccc(-c2ccc3c(N4CCOCC4)nc(N4C[C@@H](C)O[C@@H](C)C4)nc3n2)cc1CO [KU0063794] (first compound 0.005 µM, partner dose 0.1 µM)",1.63%
26,"Cc1cn(-c2cc(NC(=O)c3ccc(C)c(Nc4nccc(-c5cccnc5)n4)c3)cc(C(F)(F)F)c2)cn1 [nilotinib] + C[C@@H](N)c1ccc(C(=O)Nc2ccnc3[nH]ccc23)cc1 [RKI983] (first compound 1 µM, partner dose 2 µM)",90.6%
27,"Cc1cn(-c2cc(NC(=O)c3ccc(C)c(Nc4nccc(-c5cccnc5)n4)c3)cc(C(F)(F)F)c2)cn1 [nilotinib] + C[C@@H](Oc1cc(-c2cnn(C3CCNCC3)c2)cnc1N)c1c(Cl)ccc(F)c1Cl [Crizotinib] (first compound 1 µM, partner dose 1 µM)",107%
28,"Cc1cn(-c2cc(NC(=O)c3ccc(C)c(Nc4nccc(-c5cccnc5)n4)c3)cc(C(F)(F)F)c2)cn1 [nilotinib] + O=C(Nc1ccccc1)c1cc([N+](=O)[O-])ccc1Cl [GW9662] (first compound 1 µM, partner dose 10 µM)",61.4%
29,"CC(C)C[C@H](NC(=O)[C@H](Cc1ccccc1)NC(=O)c1cnccn1)B(O)O [Bortezomib] + O=C(Nc1ccccc1)c1cc([N+](=O)[O-])ccc1Cl [GW9662] (first compound 0.005 µM, partner dose 10 µM)",4.03%
30,"COc1ccc(C2=N[C@@H](c3ccc(Cl)cc3)[C@@H](c3ccc(Cl)cc3)N2C(=O)N2CCNC(=O)C2)c(OC(C)C)c1 [Nutlin-3] + C=CCNC1=C2C[C@@H](C)C[C@H](OC)[C@H](O)[C@@H](C)/C=C(\C)[C@H](OC(N)=O)[C@@H](OC)/C=C\C=C(/C)C(=O)NC(=CC1=O)C2=O [Tanespimycin] (first compound 0.5 µM, partner dose 0.01 µM)",57.6%

# Reference: the supplement of paper PMC4604168 (melanoma cell lines)
